Measurements taken from PubChem BioAssay (NCATS).
Where “and” joins values, the source holds several entries; their conditions need not be identical. Equal values may be shown once. The inconclusive results got no clear call from the source; some entries with a clear call stand among them for comparison. Where the call is inconclusive, the potency comes from a doubtful curve fit. Calls of active or inactive are those of the source. Calls follow the shape of the dose curve; as a rule, active = well fitted curve in the direction sought with a large enough effect; inconclusive = small, poorly fitted or top-dose-only effect, or another doubt; inactive = no such curve, though single readings can be large; an effect the other way counts as inactive or inconclusive.

test system: Zika virus NS2B-NS3 protease (unlinked); experiment: Optimization of GU AMC qHTS for Zika virus inhibitors: Unlinked NS2B-NS3 protease assay (AID 1347151); conditions: recombinant ZIKV NS2B-NS3 protease, fluorogenic AMC substrate; series mostly up to 52.5 µM; also: nearly all actives have a fitted effect of over 80% in size
Outline: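 Noncovalent complex of NS2B hydrophilic domain and NS3 protease domain, 25 nM final, in 10 mM Tris-HCl pH 8.0, 0.01% Tween 20. AMC fluorescence change over 15 min at room temperature was fitted to a 4-parameter Hill equation.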
Potency is read from the fitted curve at half-maximal effect; tags tell the direction and shape of the fitted curve.

SMILES	Potency
C[C@@H](c1ncncc1F)[C@](O)(Cn1cncn1)c1ccc(F)cc1F	inactive
CCN(CC)C(C)CN1c2ccccc2Sc2ccccc21 (stereo unspecified)	inconclusive: 23.8 µM [inhibitor, partial curve]
CN(C(=O)CCCOc1ccc2[nH]c(=O)ccc2c1)C1CCCCC1	active: 26.7 µM
NC(=O)c1cccc(N)c1	inconclusive: 26.7 µM [inhibitor, partial curve]
CC(=O)Oc1cc(C(C)C)c(OCCN(C)C)cc1C	inactive
CNCCCC1c2ccccc2C=Cc2ccccc21	active: 26.7 µM
CC(C)(C)CC(C)(C)c1ccc(OCCOCC[N+](C)(C)Cc2ccccc2)cc1	inconclusive: 19.2 µM [inhibitor, partial curve]

test system: Zika virus NS2B-NS3 protease (unlinked complex); experiment: Confirmatory screen GU AMC qHTS for Zika virus inhibitors (AID 1347153); conditions: Recombinant NS2B-NS3 protease, AMC substrate fluorescence; series mostly up to 57.1 µM; also: nearly all actives have a fitted effect of over 70% in size;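 as to potency: enzyme at 25 nM with substrate at 10 µM below its Km of 18.3 µM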
Outline: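 Unlinked NS2B-NS3 complex (25 nM) in 10 mM Tris-HCl pH 8.0, 0.01% Tween 20 preincubated 15 min with compound, then 10 microM Bz-Nle-KRR-AMC (Km 18.3 µM). Fluorescence change over 15 min, normalized, Hill-fitted.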

SMILES	Potency
CCOC(=O)C1=C(C)NC2=C(C(=O)CC(C)(C)C2)C1c1ccc(-c2ccccc2)cc1 (stereo unspecified)	inconclusive: 19.2 µM [inhibitor, partial curve]
O=c1n(CCCN2CCN(c3cccc(Cl)c3)CC2)nc2ccccn12	inconclusive: 21.5 µM [inhibitor, partial curve]
CCN(CC)CCCCNc1ncc2cc(-c3cc(OC)cc(OC)c3)c(NC(=O)NC(C)(C)C)nc2n1	inactive
COc1cc(Cl)cn2c(-c3cccc(NC4CNC4)n3)cnc12	inactive
CC[C@H](C)n1cc(C)c2c(C(=O)NCc3c(C)cc(C)[nH]c3=O)cc(-c3ccc(N4CCNCC4)nc3)cc21	active: 27.1 µM
N#Cc1c(O)c2c(-c3ccc(-c4ccccc4O)cc3)csc2[nH]c1=O	inconclusive: 9.87 µM [inhibitor, full curve]
CCCc1nc(C)c2c(=O)[nH]c(-c3cc(S(=O)(=O)N4CCN(CC)CC4)ccc3OCC)nn12	inactive

test system: Zika virus NS2B-NS3 protease; experiment: Primary screen GU AMC qHTS for Zika virus inhibitors (AID 1347154); conditions: Zika NS2B-NS3 unlinked protease, AMC fluorogenic substrate; series mostly up to 54.1 µM; also: nearly all actives have a fitted effect of over 70% in size
Outline: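 Fluorogenic AMC-substrate cleavage by noncovalent NS2B-NS3 protease complex (25 nM, pH 8.0 Tris buffer with Tween 20) followed for 15 minutes at room temperature (~20% conversion). Percent inhibition from ex340/em450 signal change, fitted by 4-parameter Hill equation.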

SMILES	Potency
CCCc1cc(C(N)=S)ccn1	inactive
COc1cccc(OC)c1-c1cc(C(=O)NC2(C(=O)O)C3CC4CC(C3)CC2C4)nn1-c1ccnc2cc(Cl)ccc12 (stereo unspecified)	inconclusive: 1.71 µM [inhibitor, full curve, poor fit]
Cc1cc(N)c2cc(NC(=O)Nc3ccc4nc(C)cc(N)c4c3)ccc2n1	active: 14.1 µM
CCOC(=O)C1=C(C)NC2=C(C(=O)CC(C)(C)C2)C1c1ccc(-c2ccccc2)cc1 (stereo unspecified)	active: 17.1 µM
CCCCCCCN(CC)CCCC(O)c1ccc(NS(C)(=O)=O)cc1 (stereo unspecified)	active: 24.1 µM
CN(C)CCOc1ccc(-c2nc(-c3ccc4c(c3)CCC4=NO)c(-c3ccncc3)[nH]2)cc1	inconclusive: 15.2 µM [inhibitor, partial curve]
Cc1c(O)cccc1C(=O)N[C@@H](CSc1ccccc1)[C@H](O)CN1C[C@H]2CCCC[C@H]2C[C@H]1C(=O)NC(C)(C)C	inactive
CC1(C)[C@H]2CC[C@]3(C)[C@@H](C(=O)C=C4[C@@H]5C[C@@](C)(C(=O)O)CC[C@]5(C)CC[C@]43C)[C@@]2(C)CC[C@@H]1O	inconclusive: 15.2 µM [inhibitor, partial curve]
NC(=NCCCCCCN=C(N)/N=C(\N)Nc1ccc(Cl)cc1)/N=C(\N)Nc1ccc(Cl)cc1	inconclusive: 39.8 µM [inhibitor, single point]
C=Cc1c(C)c2cc3nc(cc4[nH]c(cc5nc(cc1[nH]2)C(C)=C5CCC(=O)O)c(CCC(=O)OC)c4C)[C@@]1(C)C3=CC=C(C(=O)OC)[C@H]1C(=O)OC	inconclusive: 17.1 µM [inhibitor, partial curve]
Oc1ccc(C(O)CNCCCCCCNCC(O)c2ccc(O)c(O)c2)cc1O (stereo unspecified)	inconclusive: 12.6 µM [inhibitor, partial curve]
NC(=O)c1noc([C@H](CCCC2CCCCC2)CC(=O)NO)n1	inconclusive: 27.1 µM [inhibitor, single point]
CCN(CC)C(C)CN1c2ccccc2Sc2ccccc21 (stereo unspecified)	inactive
O=C(O)Cn1nnc(-c2cc(N3CCC(Oc4cc(F)ccc4Br)CC3)no2)n1	inconclusive: 8.57 µM [inhibitor, partial curve]
CN(C)c1ccc(-c2nc3ncc(Cl)c(N4CCN(CC(=O)Nc5nccs5)CC4)c3[nH]2)cc1	inconclusive: 2.41 µM [inhibitor, full curve]
CN(C(=O)CCCOc1ccc2[nH]c(=O)ccc2c1)C1CCCCC1	inconclusive: 23.8 µM [inhibitor, single point] and inconclusive: 28.7 µM [inhibitor, partial curve, poor fit]

SMILES	Potency
NC(=O)C(=O)N/N=C/c1ccc([N+](=O)[O-])o1	inconclusive: 0.0045 µM [inhibitor, full curve, poor fit]
O=c1n(CCCN2CCN(c3cccc(Cl)c3)CC2)nc2ccccn12	inconclusive: 28.7 µM [inhibitor, partial curve] and active: 26.7 µM
Nc1ccc2cc3ccc(N)cc3nc2c1	inconclusive: 32.2 µM [inhibitor, single point]
OCCn1cc(-c2cnc3nnn(Cc4ccc5ncccc5c4)c3n2)cn1	inactive
NC(=O)c1cccc(N)c1	inconclusive: 31.6 µM [inhibitor, partial curve, poor fit]
CC(=CC(=O)Nc1ccccc1C(=O)O)c1ccc2ccccc2c1	inactive
COc1ccc(CCN2CCC(Nc3nc4ccccc4n3Cc3ccc(F)cc3)CC2)cc1	inactive
CNCCCC1c2ccccc2C=Cc2ccccc21	inconclusive: 32.2 µM [inhibitor, partial curve, poor fit]
CCN(CC)CCCCNc1ncc2cc(-c3cc(OC)cc(OC)c3)c(NC(=O)NC(C)(C)C)nc2n1	active: 21.5 µM
CC(C)(O)Cn1c(NC(=O)c2ccc(-c3cn[nH]c3)s2)nc2cc(CN3CCOCC3)ccc21	inconclusive: 34.1 µM [inhibitor, single point]
C=C1[C@H](n2cnc3c(=O)[nH]c(N)nc32)C[C@H](O)[C@H]1CO	inconclusive: 3.04 µM [inhibitor, partial curve, poor fit]
COc1cc(Cl)cn2c(-c3cccc(NC4CNC4)n3)cnc12	inconclusive: 21.5 µM [inhibitor, partial curve]
CC[C@H](C)n1cc(C)c2c(C(=O)NCc3c(C)cc(C)[nH]c3=O)cc(-c3ccc(N4CCNCC4)nc3)cc21	active: 21.5 µM
CC1(C)C(N(O)C(=O)Nc2ccc(Cl)cc2)N(c2ccc(Cl)cc2)C(=O)N1CC(=O)NN=CC=Cc1ccc([N+](=O)[O-])o1 (stereo unspecified)	inconclusive: 21.5 µM [inhibitor, partial curve]
N#Cc1c(O)c2c(-c3ccc(-c4ccccc4O)cc3)csc2[nH]c1=O	active: 8.57 µM
CCN(CC)C(=O)/C(C#N)=C/c1cc(O)c(O)c([N+](=O)[O-])c1	inconclusive: 3.55 µM [inhibitor, full curve]
